“And” between values parts separate entries of the source, which are not always exact repeats. Equal entries are not always repeated. Inconclusive results, whose numbers are uncertain, are shown with a selection of clear calls. For part of these data: Potencies of inconclusive entries are doubtful fits and often do not repeat. For part of these data: “Side channel” marks fits to a control or component signal instead of the main read-out. The source made the active and inactive calls. Unless noted, calls follow the shape of the dose curve; as a rule, active = well fitted curve in the direction sought with a large enough effect; inconclusive = small, poorly fitted or top-dose-only effect, or another doubt; inactive = no such curve, though single readings can be large; an effect the other way counts as inactive or inconclusive.
Tests used:
[1] = Cell Viability - LYMP2-018 (AID 985); conditions: LYMP2-018 lymphoblastoid cells, viability (qHTS); activity change, negative = cytotoxicity: at 92.2 µM (top of the series); also: potency is read from the fitted curve at half-maximal effect; nearly all actives have a fitted effect of over 50% in size
In short: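 In this qHTS viability assay, cells are treated for 24 hr and cellular ATP is quantified by luciferase-based luminescence, with tetraoctylammonium bromide as positive control.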

[2] = Cell Viability - LYMP2-020 (AID 986);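 also: potency is read from the fitted curve at half-maximal effect; cells exposed to compound for 24 h at 37 °C; nearly all actives have a fitted effect of over 55% in size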
In short: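 Cells at 2500 per well receive a 24 hr compound exposure at 37 C. Viability is measured as ATP-dependent luciferase luminescence, with AC50 modeled from qHTS concentration-response curves.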

[3] = Cell Viability - LYMP2-022 (AID 987); conditions: LYMP2-022 lymphoblastoid cell viability; viability change, negative = cytotoxic: at 92.2 µM (top of the series); also: potency is read from the fitted curve at half-maximal effect; nearly all actives have a fitted effect of over 55% in size
In short: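 In this qHTS cytotoxicity screen, compound titrations were incubated 24 hr at 37 C with human lymphoblastoid cells in complete medium. Luciferase-based ATP luminescence provided the viability signal.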

[4] = Cell Viability - LYMP2-024 (AID 988); also: potency is read from the fitted curve at half-maximal effect; nearly all actives have a fitted effect of over 60% in size
In short: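 Cells at 2500 per well received compound for 24 hr after a 5 hr settling period. Viability was scored by CellTiter-Glo luminescence, with AC50 from Hill fits.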

[5] = Cell Viability - LYMP2-026 (AID 989); conditions: LYMP2-026 lymphoblastoid cell viability, qHTS; activity change, negative = cytotoxic: at 92.2 µM (top of the series);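 also: potency is read from the fitted curve at half-maximal effect; cells exposed to compound for 24 h at 37 °C; nearly all actives have a fitted effect of over 50% in size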
In short: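 Acute toxicity screen in complete culture medium, with 24 hr compound exposure at 37 C. Viability read as cellular ATP via luciferase reaction, with tetraoctylammonium bromide (6.4pM to 92 uM) as positive control.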

[6] = Cell Viability - LYMP1-002 - Assay at 24 hr (AID 993); also: potency is read from the fitted curve at half-maximal effect
In short: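 Viability was judged from intracellular ATP using a luciferase read-out, following a 24-hour compound incubation at 37 C of lymphoblastoid cells seeded at 2500 per well. Concentration-response data were fitted to the Hill equation for AC50.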

[7] = Cell Viability - LYMP1-002 - Assay at 40 hr (AID 994); also: potency is read from the fitted curve at half-maximal effect; nearly all actives have a fitted effect of over 60% in size
In short: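 Concentration-dependent ATP loss after 40 hr treatment at 37 C defined toxicity; AC50 values were obtained by fitting the standard Hill equation.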

[8] = qHTS Assay for Lipid Storage Modulators (AID 1519; calls by dose curve; also: % is scaled to controls: 0 for no effect and ±100 for the full control effect); conditions: Drosophila S3 cells, BODIPY lipid droplet/cell ratio, laser cytometry, cells loaded with oleic acid; activity change, negative = inhibition: at 57.5 µM (top of the series) unless noted
In short: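 Cells seeded at 5,000 per well were treated with compounds over a concentration series and loaded with oleic acid (400 uM, as added). Lipid droplet fluorescence (488 nm excitation, 500-530 nm channel) was read by laser-scanning cytometry and normalized to 20 uM Triacsin C.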

[9] = target: Estrogen receptor (Homo sapiens) (UniProt P03372); experiment: qHTS assay for small molecule antagonists of estrogen receptor alpha signaling (AID 588513; active = well fitted curve in the direction sought with a large enough effect in the signal ratio, with a control signal flat, not every such curve was filed as active; inconclusive = small, poorly fitted or top-dose-only effect, or effect the other way, or a change in a side signal; inactive = no such curve, though single readings can be large or run the other way; the % refers to the signal ratio; also: potency is read from the fitted curve at half-maximal effect; as to activity, negative = inhibition: % is scaled to controls: 0 for no effect and ±100 for the full control effect); conditions: ER-alpha-UAS-bla HEK293, beta-lactamase ratio, antagonist mode; activity, negative = inhibition: at 76.9 µM (top of the series)
Sequence of UniProt P03372 (P03372 whole entry, looked up): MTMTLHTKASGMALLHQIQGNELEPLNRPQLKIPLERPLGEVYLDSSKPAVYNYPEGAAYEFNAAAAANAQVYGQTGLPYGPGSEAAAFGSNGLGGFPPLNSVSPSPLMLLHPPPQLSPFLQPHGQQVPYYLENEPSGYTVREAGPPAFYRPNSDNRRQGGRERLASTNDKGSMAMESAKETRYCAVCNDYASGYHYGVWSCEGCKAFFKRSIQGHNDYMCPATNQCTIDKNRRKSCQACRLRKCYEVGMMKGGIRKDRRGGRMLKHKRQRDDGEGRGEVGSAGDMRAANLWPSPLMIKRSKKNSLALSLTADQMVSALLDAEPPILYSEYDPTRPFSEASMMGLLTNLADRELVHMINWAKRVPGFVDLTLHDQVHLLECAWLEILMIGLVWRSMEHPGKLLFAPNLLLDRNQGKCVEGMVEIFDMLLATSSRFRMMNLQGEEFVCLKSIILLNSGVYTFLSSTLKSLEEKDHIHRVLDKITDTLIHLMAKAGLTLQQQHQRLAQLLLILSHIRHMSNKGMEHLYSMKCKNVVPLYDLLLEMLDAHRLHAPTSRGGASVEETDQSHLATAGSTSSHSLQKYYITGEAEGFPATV
In short: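 ER-alpha-UAS-bla GripTite HEK 293 cells in medium with 2% charcoal/dextran-treated FBS were preincubated 4 h at 37 C, dosed with compound (1:2 titration), stimulated with 0.5nM 17-beta-estradiol for 18 h, then read by CCF4 beta-lactamase fluorescence.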

[10] = target: Glucocorticoid receptor (Homo sapiens) (UniProt P04150); experiment: qHTS assay for small molecule agonists of glucocorticoid receptor signaling (AID 588532; active = well fitted curve in the direction sought with a large enough effect in the signal ratio, with a control signal flat; inconclusive = small, poorly fitted or top-dose-only effect, or a change in a side signal; inactive = no such curve, though single readings can be large or run the other way; the % refers to the signal ratio;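 also: 100% = dexamethasone at 0.1 µM and 0% = DMSO only wells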); conditions: HeLa MMTV-bla, beta-lactamase ratio, agonist, 18 h; activation: active compounds read high, percent of dexamethasone control, DMSO zero
In short: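 Stimulation of a glucocorticoid response element-driven beta-lactamase gene was measured in HeLa cells. Responses were scaled between DMSO basal and 0.1 uM dexamethasone, then fitted for half-maximal stimulation.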

[11] = target: Glucocorticoid receptor (Homo sapiens) (UniProt P04150); experiment: qHTS assay for small molecule antagonists of glucocorticoid receptor signaling (AID 588533; active = well fitted inhibition curve with a large enough effect in the signal ratio, with a control signal flat, not every such curve was filed as active; inconclusive = small, poorly fitted or top-dose-only effect, or effect the other way, or a change in a side signal; the % refers to the signal ratio;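 also: cells stimulated with 2 nM dexamethasone as agonist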; also: potency is read from the fitted curve at half-maximal effect; as to activity change, negative = inhibition: % is scaled to controls: 0 for no effect and ±100 for the full control effect); conditions: HeLa MMTV-bla, GRE beta-lactamase ratio, antagonist mode, 18 h; activity change, negative = inhibition: at 76.8 µM (top of the series)
[12] = target: Peroxisome proliferator-activated receptor gamma (Homo sapiens) (UniProt P37231); experiment: qHTS assay for small molecule agonists of peroxisome proliferator-activated receptor gamma signaling (AID 588536; active = well fitted curve in the direction sought with a large enough effect in the signal ratio, with a control signal flat, not every such curve was filed as active; inconclusive = small, poorly fitted or top-dose-only effect, or effect the other way, or a change in a side signal; inactive = no such curve, though single readings can be large or run the other way; the % refers to the signal ratio; also: potency is read from the fitted curve at half-maximal effect;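 as to activation: 0% = DMSO basal wells and 100% = rosiglitazone at 2 µM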); conditions: HEK293 PPARg-UAS-bla, beta-lactamase ratio, 16 h; activation: at 76.7 µM (top of the series), percent of rosiglitazone response, DMSO as zero
In short: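 Cells were plated and held 6–6.5 h at 37 C, then compounds were added as a titration series. After a further 16 h, CCF4 dye was loaded for 2 h at room temperature and emission at 460/530 nm recorded.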

[13] = target: Peroxisome proliferator-activated receptor gamma (Homo sapiens) (UniProt P37231); experiment: qHTS assay for small molecule antagonists of peroxisome proliferator-activated receptor gamma signaling (AID 588537; active = well fitted inhibition curve with a large enough effect in the signal ratio, with a control signal flat, not every such curve was filed as active; inconclusive = small, poorly fitted or top-dose-only effect, or effect the other way, or a change in a side signal; the % refers to the signal ratio;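 also: reporter cells co-stimulated with 50 nM rosiglitazone agonist during compound treatment; potency is read from the fitted curve at half-maximal effect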); conditions: HEK293 PPARg-UAS-bla, beta-lactamase ratio, antagonist mode; activity, negative = inhibition: at 76.8 µM (top of the series)
In short: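 HEK293 cells, PPAR-gamma-UAS-bla, 3000/well. Pre-incubation 6-6.5 h, 37 C. Compound titration with rosiglitazone 50 nM final, 16 h. CCF4 dye, 2 h RT, dual-emission fluorescence.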

[14] = target: Retinoic acid receptor RXR-alpha (Homo sapiens) (UniProt P19793); experiment: qHTS assay for small molecule agonists of retinoid X receptor alpha signaling (AID 588544; calls by dose curve; also: potency is read from the fitted curve at half-maximal effect); conditions: HEK293T RXRa-UAS-bla, beta-lactamase reporter, 18 h; activation: at 76.7 µM (top of the series)
Sequence of UniProt P19793 (P19793 whole entry, looked up): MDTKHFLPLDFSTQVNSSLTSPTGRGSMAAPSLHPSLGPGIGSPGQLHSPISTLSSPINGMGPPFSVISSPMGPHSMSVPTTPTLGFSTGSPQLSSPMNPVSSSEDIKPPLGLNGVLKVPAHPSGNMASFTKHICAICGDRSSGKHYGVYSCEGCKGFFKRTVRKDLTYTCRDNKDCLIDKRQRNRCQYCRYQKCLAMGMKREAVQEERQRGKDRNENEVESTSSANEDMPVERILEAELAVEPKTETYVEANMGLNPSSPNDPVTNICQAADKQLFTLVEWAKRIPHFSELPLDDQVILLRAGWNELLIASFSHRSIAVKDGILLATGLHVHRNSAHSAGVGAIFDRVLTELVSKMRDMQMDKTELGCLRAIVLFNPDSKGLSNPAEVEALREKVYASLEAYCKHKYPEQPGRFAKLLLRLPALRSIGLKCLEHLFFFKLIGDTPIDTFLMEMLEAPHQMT

[15] = target: Retinoic acid receptor RXR-alpha (Homo sapiens) (UniProt P19793); experiment: qHTS assay for small molecule antagonists of retinoid X receptor alpha signaling (AID 588546; active = well fitted inhibition curve with a large enough effect in the signal ratio, with a control signal flat, not every such curve was filed as active; inconclusive = small, poorly fitted or top-dose-only effect, or effect the other way, or a change in a side signal; inactive = no such curve, though single readings can be large or run the other way; the % refers to the signal ratio; also: potency is read from the fitted curve at half-maximal effect;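 as to max response: cells stimulated with 9-cis-retinoic acid as agonist; % is scaled to controls: 0 for no effect and ±100 for the full control effect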); conditions: HEK293T RXRa-UAS-bla, beta-lactamase ratio, antagonist mode
In short: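 Beta-lactamase reporter inhibition, read as CCF4 fluorescence ratio (ex 405, em 460/530 nm) after 2 h at RT. HEK293T UAS-bla cells, 2500/well, were stimulated with 9-cis-RA at 500 or 100 nM final alongside test compound for 18 h at 37 C.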

[16] = target: Thyroid hormone receptor beta (Homo sapiens) (UniProt P10828); experiment: qHTS assay for small molecule antagonists of thyroid hormone receptor beta signaling (AID 588547; active = well fitted inhibition curve with a large enough effect in the signal ratio, with a control signal flat, not every such curve was filed as active; inconclusive = small, poorly fitted or top-dose-only effect, or effect the other way, or a change in a side signal; the % refers to the signal ratio; also: potency is read from the fitted curve at half-maximal effect); conditions: TR-UAS-bla HEK293, beta-lactamase ratio, antagonist mode, 18 h
Sequence of UniProt P10828 (P10828 whole entry, looked up): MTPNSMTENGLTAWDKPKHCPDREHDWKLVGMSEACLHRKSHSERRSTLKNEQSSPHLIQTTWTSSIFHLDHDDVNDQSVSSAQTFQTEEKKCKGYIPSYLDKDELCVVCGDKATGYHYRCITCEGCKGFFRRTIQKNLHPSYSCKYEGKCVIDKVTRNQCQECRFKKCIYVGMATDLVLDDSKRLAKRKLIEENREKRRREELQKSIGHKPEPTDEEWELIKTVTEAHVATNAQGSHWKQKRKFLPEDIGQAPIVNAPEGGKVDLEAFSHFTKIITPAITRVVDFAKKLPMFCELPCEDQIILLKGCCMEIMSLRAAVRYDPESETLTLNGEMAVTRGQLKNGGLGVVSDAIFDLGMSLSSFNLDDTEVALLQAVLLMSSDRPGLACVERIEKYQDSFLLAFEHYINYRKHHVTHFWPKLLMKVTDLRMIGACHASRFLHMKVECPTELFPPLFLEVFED
In short: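 TR-UAS-bla GripTite HEK293 cells in 2% charcoal/dextran FBS medium were preincubated 4 h at 37 C, given compound (0.59 nM to 92 uM) plus 0.4 nM T3 (final) for 18 h, then CCF4 for 2 h at RT; Hill fit gave IC50.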

[17] = qHTS assay for small molecule agonists of the antioxidant response element (ARE) signaling pathway (AID 651741; active = well fitted activation curve with a large enough effect in the signal ratio; inconclusive = small, poorly fitted or top-dose-only effect, or effect the other way, or a change in a side signal; the % refers to the signal ratio; also: potency is read from the fitted curve at half-maximal effect); conditions: HepG2 ARE-bla reporter, beta-lactamase FRET ratio, 16 h; activation: at 96 µM (top of the series)
In short: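 Beta-lactamase reporter expression driven by the antioxidant response element in HepG2 cells was detected by fluorescence with LiveBLAzer B/G FRET substrate (2 h, room temperature) following 16 h compound treatment at 37 C.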

[18] = qHTS assay to identify small molecules that stimulate interleukin-8 (IL-8) secretion (AID 651758; active = well fitted activation curve with a large enough effect in the signal ratio; inconclusive = small, poorly fitted or top-dose-only effect, or effect the other way, or a change in a side signal; the % refers to the signal ratio; also: 0% is about no effect); conditions: HTRF ratio (665/615); activation: at 92.2 µM (top of the series)
In short: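 Quantitative HTS in THP-1 monocytic cells at 2000 cells per well, with 16 hrs compound incubation at 37 C. IL-8 in the medium was then quantified by HTRF immunoassay, read after 1-3 hrs at room temperature.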

[19] = qHTS assay for small molecule agonists of the antioxidant response element (ARE) signaling pathway measured by Nrf2-dependant transcriptional activity (AID 720636; active = well fitted curve in the direction sought with a large enough effect in the repeat runs; inconclusive = weak or mixed curves; inactive = no such curve, though single readings can be large; an effect the other way counts as inactive or inconclusive; also: potency is read from the fitted curve at half-maximal effect)
In short: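 ONE-Glo luminescence, read 30 min after reagent addition at room temperature, reflected ARE reporter activity in HepG2 cells that had been incubated with compound for 16 hr at 37 C in 1% dialyzed FBS.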
Tags tell the direction and shape of the fitted curve or compound fluorescence and quenching.

Compound: CCOCN(C(=O)CCl)c1c(C)cccc1CC
- Potency [1]: inconclusive: 50.1 µM [cytotoxic, partial curve, poor fit]
- Potency [2]: inconclusive: 63.1 µM [cytotoxic, partial curve, poor fit]
- Potency [3]: inconclusive: 50.1 µM [cytotoxic, partial curve, poor fit]
- Potency [4]: inconclusive: 79.4 µM [cytotoxic, partial curve, poor fit]
- Potency [5]: inconclusive: 79.4 µM [cytotoxic, single point]
- Potency [6]: inconclusive: 50.1 µM [cytotoxic, partial curve]
- Potency [7]: inconclusive: 50.1 µM [cytotoxic, partial curve]
- Potency [8]: inactive
- Potency [9]: inconclusive: 14.1 µM [falling, full curve]
- activity, negative = inhibition [9]: inconclusive: -58.2%
- activation [10]: inactive: 5.28% and inactive: 1.08%
- Potency [11]: inconclusive: 50.1 µM [inhibitor, single point]
- activity change, negative = inhibition [11]: inconclusive: -19.3%
- Potency [12]: inconclusive: 35.5 µM [inhibitor, partial curve]
- activation [12]: inconclusive: -16.7%
- Potency [13]: inconclusive: 39.8 µM [side channel, rising, partial curve] and inconclusive: 15.8 µM [side channel, rising, partial curve]
- Potency [14]: inconclusive: 39.8 µM [side channel, rising, partial curve, poor fit] and inconclusive: 17.8 µM [side channel, rising, partial curve, poor fit]
- Potency [15]: inconclusive: 39.8 µM [side channel, rising, partial curve, poor fit]
- max response [15]: inconclusive: -77.5%
- Potency [16]: inconclusive: 50.1 µM [side channel, rising, single point]
- activity change % (negative = inhibition) [16]: inconclusive: -42%
- Potency [17]: active: 7.5 µM and active: 7.7 µM
- Potency [18]: inactive
- Potency [19]: inconclusive: 66.8 µM [activator, partial curve] and inconclusive: 34.4 µM [activator, partial curve, poor fit]

Source: PubChem BioAssay (NCATS)
